# From patent publication US20260167677A1, “ANTI-ADAM10 ANTIBODIES AND USES IN TREATMENT OF CANCER” (Memorial Sloan Kettering Cancer Center, priority 2022, published 2026)
# B1: 1H5: fully human anti-ADAM10 antibody clone; heavy chain SEQ ID NO: 14, light chain SEQ ID NO: 15 (antibody)
# heavy: QVQLVESGGGLVKPGGSLRLSCAASGFTFSDYYMSWIRQAPGKGLEWVSYISSSGSTIYYADSVKGRFTISRDNAKNSLYLQMNSLRAEDTAVYYCARDFYDSKIFDYWGQGTLVTVSS[human IgG1 constant region left out]
# light: DIQMTQSPSSLSASVGDRVTITCRASQSISSYLNWYQQKPGKAPKLLIYAASSLQSGVPSRFSGSGSGTDFTLTISSLQPEDVGVYYCMEGLKTPFTFGPGTKLEIKRTVAAPSVFIFPPSDEQLKSGTASVVCLLNNFYPREAKVQWKVDNALQSGNSQESVTEQDSKDSTYSLSSTLTLSKADYEKHKVYACEVTHQGLSSPVTKSFNRGEC
# Key:
# human (h) ADAM10 D+C = target: T1, human (h) ADAM10 D+C (Homo sapiens, UniProt O14672); experiment: ELISA, 1H5 IgG binding to immobilized human ADAM10 D+C; settings: FIG. 2 Panel E
# T1 construct: human ADAM10 D+C (455-650); Fc-tag (human); made in house; host or cells: baculovirus-infected Hi5 insect cells
# T1 sequence (O14672 455-650): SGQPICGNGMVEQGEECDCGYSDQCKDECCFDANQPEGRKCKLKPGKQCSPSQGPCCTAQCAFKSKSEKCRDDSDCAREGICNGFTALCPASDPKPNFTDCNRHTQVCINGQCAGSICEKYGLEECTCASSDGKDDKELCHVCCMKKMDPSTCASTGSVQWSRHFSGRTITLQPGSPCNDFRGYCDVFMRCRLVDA
# Description: (§1) Panels A-C show characterization of the fully human 1H5 Fab. […] [Lane 1: Low molecular weight standards (Bio-Rad). Lane 2: bead bound murine 8C7 immunoglobulin G (IgG)+ADAM10 D+C. […] Lane 4: bead bound ADAM10 D+C without any pre-bound mAb. Lane 5: ADAM10 D-f-C input]
# human ADAM10 ECD = target: T2, human ADAM10 ECD (Homo sapiens, UniProt O14672); experiment: Fluorogenic peptide cleavage assay, human ADAM10 ECD; type: biochemical; settings: 1:1 molar ratio
# T2 construct: Human ADAM10 ECD (20-650); Fc-tag (human); made in house; host or cells: baculovirus-infected Hi5 insect cells
# T2 sequence (O14672 20-650): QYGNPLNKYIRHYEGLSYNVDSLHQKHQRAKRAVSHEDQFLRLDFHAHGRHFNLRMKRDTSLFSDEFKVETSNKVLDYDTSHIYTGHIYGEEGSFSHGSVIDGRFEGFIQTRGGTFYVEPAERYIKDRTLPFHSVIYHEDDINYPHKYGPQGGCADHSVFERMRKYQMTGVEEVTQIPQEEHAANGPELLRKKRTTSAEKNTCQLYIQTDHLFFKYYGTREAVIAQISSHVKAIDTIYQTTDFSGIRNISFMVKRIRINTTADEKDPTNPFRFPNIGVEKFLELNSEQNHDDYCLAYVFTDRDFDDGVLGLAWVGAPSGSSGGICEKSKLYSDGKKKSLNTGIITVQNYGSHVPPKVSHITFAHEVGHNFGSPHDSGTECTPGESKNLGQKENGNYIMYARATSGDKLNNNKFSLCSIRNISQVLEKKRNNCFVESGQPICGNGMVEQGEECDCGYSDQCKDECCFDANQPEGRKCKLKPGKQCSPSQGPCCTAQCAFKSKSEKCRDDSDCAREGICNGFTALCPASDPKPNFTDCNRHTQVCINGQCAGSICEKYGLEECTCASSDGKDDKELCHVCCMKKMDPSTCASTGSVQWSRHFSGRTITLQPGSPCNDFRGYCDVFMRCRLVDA
# Procedure: (§2) ADAM10 ECD-antibody or ADAM10 ECD-inhibitor (broad spectrum metalloprotease inhibitor GM6001) complexes were formed at a 1:1 molar ratio prior to the assay. The assay was carried out by mixing 50 μM of a fluorogenic peptide substrate Mca-PLAQAV-Dpa with ADAM10-antibody/inhibitor complexes at 37° C., and monitoring the progress of the enzymatic reaction by fluorescence emission (excitation 320 nm and emission 405 nm) over a time course of 1 hour using a SpectraMax M5. ADAM10 ECD (bovine or human) alone was used as positive control. The substrate peptide was derived from TNFalpha and contains a highly fluorescent 7-methoxycoumarin group and a quencher group, 2,4-dinitrophenyl. ADAM10 cleaves the amide bond between the fluorescent and the quencher group causing an increase in fluorescence (Seegar et al., 2017; Black & Becherer, 1998).
# bovine ADAM10 ECD = target: T3, bovine ADAM10 ECD (Bos taurus, UniProt Q10741); experiment: Fluorogenic peptide cleavage assay, bovine ADAM10 ECD; type: biochemical; settings: 1:1 molar ratio
# T3 construct: Bovine ADAM10 ECD (20-646); Fc-tag (C, cleaved yes); made in house; host or cells: HEK293 cells
# T3 sequence (Q10741 20-646): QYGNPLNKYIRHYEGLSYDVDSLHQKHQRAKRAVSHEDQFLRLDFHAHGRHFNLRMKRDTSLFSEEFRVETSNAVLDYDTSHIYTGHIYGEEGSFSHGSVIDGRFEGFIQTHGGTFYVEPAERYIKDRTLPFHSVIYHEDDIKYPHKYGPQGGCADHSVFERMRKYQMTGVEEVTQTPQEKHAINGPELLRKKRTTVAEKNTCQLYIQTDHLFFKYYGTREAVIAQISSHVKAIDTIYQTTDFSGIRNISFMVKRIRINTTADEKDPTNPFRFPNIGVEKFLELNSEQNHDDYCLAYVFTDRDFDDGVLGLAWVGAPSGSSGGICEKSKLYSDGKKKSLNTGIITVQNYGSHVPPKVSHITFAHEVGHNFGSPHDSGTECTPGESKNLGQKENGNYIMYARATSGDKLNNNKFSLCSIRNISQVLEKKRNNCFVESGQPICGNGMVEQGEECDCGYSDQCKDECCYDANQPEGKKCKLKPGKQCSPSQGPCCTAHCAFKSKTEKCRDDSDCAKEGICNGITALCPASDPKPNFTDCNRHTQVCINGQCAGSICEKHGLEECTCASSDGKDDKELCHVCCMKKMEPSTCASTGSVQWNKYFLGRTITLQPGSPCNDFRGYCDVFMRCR
# Procedure: as §2
# HTC116 = experiment: Alamar blue cell viability assay, HTC116; type: cell-based, human
# Procedure: For the Alamar blue cell viability assays, the cells were harvested in the log phase of growth (after 3 days of culturing). The cell count was determined and was adjusted to 5×10^4 cells/ml. […] The cells were allowed to grow for an additional 38 hours. Cells not treated with 1H5 were used as a control. Alamar Blue (10% of the well volume) was added aseptically. Cultures containing Alamar Blue were incubated for 6 hours, and cell proliferation was measured spectrophotometrically by absorbance at 570 and 600 nm. Cell viability was calculated using the following formula:
# O1=molar extinction coefficient (E) of oxidized alamarBlue® (Blue) at 570 nm, O2=E of oxidized alamarBlue® at 600 nm, A1=absorbance of test wells at 570 nm, A2=absorbance of test wells at 600 nm, P1=absorbance of positive growth control well (cells plus AamarBlue® but no test agent) at 570 nm, P2=absorbance of positive growth control well (cells plus AlamarBlue® but no test agent) at 600 nm (O'Brien et al., 2000).
# human ADAM17 D+C = target: T4, human ADAM17 D+C (Homo sapiens, UniProt P78536); experiment: ELISA, 1H5 IgG binding to human ADAM17 D+C; settings: FIG. 2 Panel E
# T4 construct: the human ADAM17 D+C (482-648); Fc-tag (human); made in house; host or cells: baculovirus-infected Hi5 insect cells
# Description: as §1
# T4 sequence (P78536 482-648): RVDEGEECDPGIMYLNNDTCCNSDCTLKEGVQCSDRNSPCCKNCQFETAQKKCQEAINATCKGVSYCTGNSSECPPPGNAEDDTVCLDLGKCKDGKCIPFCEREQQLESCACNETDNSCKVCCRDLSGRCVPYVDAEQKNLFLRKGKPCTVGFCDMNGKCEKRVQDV
molecule,measurement,setting,value
B1,binding to immobilized human ADAM10 D+C,human (h) ADAM10 D+C,binds specifically
same,ADAM10 enzymatic activity,human ADAM10 ECD,promoted the ADAM10 enzymatic activity
same,ADAM10 enzymatic activity,bovine ADAM10 ECD,promoted the ADAM10 enzymatic activity
same,growth of colon cancer cell line,HTC116,inhibited growth
same,binding to human ADAM17 D+C,human ADAM17 D+C,but not to
